# Assay results: the supplement of paper PMC9446081
# Screen size: about 39,000 compounds; about 220 (0.56%) showed activity. This is one part of the list.
# System: Escherichia coli K-12 BW25113
# Assay: relative growth (OD600 normalised to plate interquartile mean) (fraction); higher = less growth inhibition, active = 0.2 or less
# Conditions: 50 µM; LB; incubation time: overnight (16-24 h)
# 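Note: static incubation at 37 °C against the wild-type strain, values averaged over two biological replicates.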
row,Structure (SMILES),relative growth
1,c1cnc(N[C@@H]2CO[C@@]3(CCNC3)C2)cn1,inactive: 1.01
2,COC(=O)[C@@]1(Cc2ccccc2CN=[N+]=[N-])N=C(c2ccc(OCCCO)cc2)O[C@H]1c1ccccc1N=[N+]=[N-],inactive: 1.01
3,CCC(C)C(=O)OC1CC2(C)C(c3ccoc3)OC(=O)CC23OC2(C)OC34C(OC(=O)C(C)C)C3(O)C(OC(=O)C5(C)OC5C)C5(C)CC3(O)C(C)(C5CC(=O)OC)C14O2 (configuration not stated),inactive: 0.982
4,C=CCc1cc(OC)c2c(c1OC)OCO2,inactive: 0.99
5,C[N+](C)(C)C[C@H]1CCC[C@@H]1O,inactive: 0.98
6,c1cncc(N2CCNCC2)c1,inactive: 1.02
7,CC(C)c1csc(CCN)n1,inactive: 0.964
8,Oc1ccccc1N1CCNCC1,inactive: 1.04
9,O=C1C2CCN(CC2)C1(CO)CO,inactive: 0.938
10,C1COC2(CCNCC2)OC1,inactive: 1.03
11,Cc1cc(N2CCN(C)CC2)ncn1,inactive: 1.02
12,CCC1(C2OC(C3OC(O)(CO)C(C)CC3C)CC2C)CCC(C2(C)CCC3(CC(O)C(C)C(C(C)C(OC)C(C)C(=O)[O-])O3)O2)O1.[Na+] (configuration not stated),inactive: 0.973
13,COC(=O)C1(O)C[C@H]2CC[C@@H](C1)N2C (some centres not stated),inactive: 0.996
14,COc1cc2ccc(=O)oc2c2ccoc12,inactive: 1.05
15,NCC1(CC(=O)O)CCCCC1,inactive: 0.872
16,C=CCc1ccc(OC)cc1,inactive: 0.903
17,COc1cc2c(cc1OC)C13CCN4CC5=CCOC6CC(=O)N2C1C6C5CC43 (configuration not stated),inactive: 1.05
18,C[C@@H]1CN([C@@H](C)CO)C(=O)CCCn2nncc2CO[C@@H]1CN(C)C(=O)Oc1ccc2ccccc2c1,inactive: 0.993
19,COc1cccc(C=O)c1OC,inactive: 1.01
20,COc1ccc(OC(=O)N(C)C[C@H]2OCc3ccccc3-c3c(n(C)c4ccccc34)C(=O)N([C@@H](C)CO)C[C@H]2C)cc1,inactive: 1.02
21,O=C(NC[C@H]1CC[C@]2(CNCCOC2)O1)c1ccnnc1,inactive: 0.971
22,O=C(O)[C@H]1N[C@H]2CC[C@@H]1C2,inactive: 1.01

row,Structure (SMILES),relative growth
1,COc1ccc2cc(CCN)c(=O)[nH]c2c1,inactive: 1.01
2,CN1C[C@@H](C(=O)O)CN2CCN(C(=O)c3ccncc3F)C[C@@H]2C1,inactive: 1.07
3,NCCc1cccc2ccccc12,inactive: 1
4,COC(=O)[C@@H]1C(=O)NC[C@H]1C(C)C,inactive: 0.99
5,COc1cc(C=O)cc(OC)c1OC,inactive: 1.04
6,CN1CCc2cc3c(cc2[C@@H]1O)OCO3,inactive: 1
7,CCOC(=O)c1cncn1C(C)c1ccccc1 (configuration not stated),inactive: 0.991
8,CNC(=O)Oc1cccc2ccccc12,inactive: 1.05
9,COC1=CC(=O)OC(C=Cc2ccccc2)C1 (configuration not stated),inactive: 1.04
10,CC(C)CCC[C@]1(C)C=Cc2c(O)c3c(c(CCC(C)C)c2O1)O[C@]12[C@H](C[C@@H]4C[C@H]1C(C)(C)O[C@]2(CC[C@@H](C)C(=O)O)[C@@H]4O)C3=O,inactive: 0.905
11,Cc1cc[n+](C)cc1,inactive: 0.995
12,C[N+]12CCC(CC1)C(OC(=O)C(O)(c1ccccc1)c1ccccc1)C2.[Br-] (configuration not stated),inactive: 0.968
13,CCN1C[C@]2(COC)CC[C@@H](OC)[C@@]34[C@@H]2[C@@H](OC)[C@@H]([C@@H]13)[C@]1(OC(C)=O)C[C@@H](OC)[C@@]2(O)C[C@H]4[C@@H]1[C@H]2OC(=O)c1ccc(OC)cc1,inactive: 1.02
14,CC(O)(CS(=O)(=O)c1ccc(F)cc1)C(=O)Nc1ccc(C#N)c(C(F)(F)F)c1 (configuration not stated),inactive: 1.03
15,C[C@H]1CN([C@@H](C)CO)C(=O)CCCn2nncc2CO[C@@H]1CN(C)C(=O)Oc1ccc2ccccc2c1,inactive: 0.907
16,O=C1C[C@@H](c2ccc(O)cc2)CN1,inactive: 0.997
17,[N-]=[N+]=Nc1ccccc1C[C@@]1(C(=O)NCCN2CCOCC2)N=C(c2ccc(OCCCO)cc2)O[C@@H]1c1ccccc1N=[N+]=[N-],inactive: 1
18,C[C@@H]1CC[C@@]2(OC1)O[C@H]1[C@@H](O)[C@H]3[C@H]4CC[C@H]5C[C@H](O[C@@H]6O[C@H](CO)[C@H](O[C@@H]7O[C@H](CO)[C@@H](O)[C@H](O[C@@H]8OC[C@@H](O)[C@H](O)[C@H]8O)[C@H]7O[C@@H]7O[C@H](CO)[C@H](O)[C@H](O[C@@H]8O[C@H](CO)[C@@H](O)[C@H](O)[C@H]8O)[C@H]7O)[C@H](O)[C@H]6O)[C@H](O)C[C@]5(C)[C@@H]4CC[C@]3(C)[C@H]1[C@@H]2C,inactive: 1.02
19,Cc1nccc2c1[nH]c1cc(O)ccc12,inactive: 0.9
20,COc1cc2c(cc1OC)C1C(=O)c3ccc4c(c3OC1CO2)CC(C(C)C)O4 (configuration not stated),inactive: 0.996
21,CCCCS(=O)(=O)N1C[C@H]2CNC[C@@H]2C1,inactive: 0.992
22,CC(C)c1cccc(C(C)C)c1O,inactive: 0.859

row,Structure (SMILES),relative growth
1,OCc1ccco1,inactive: 1.05
2,C[C@@]12NC(=O)CN1CCc1ccccc12,inactive: 1.03
3,CC(C)(CN)CNc1ccc([N+](=O)[O-])c2cccnc12,inactive: 0.97
4,COc1c(C[C@@H](C)O)c2c3c(C[C@@H](C)O)c(OC)c(=O)c4c(O)cc5c(c6c(cc(O)c(c1=O)c62)OCO5)c43,inactive: 1.08
5,O=C(Cc1ccccc1)c1ccccc1,inactive: 0.986
6,O[C@@H]1[C@@H]2C[C@H]3[C@H]1N[C@@H]1C[C@@H]2[C@@H]3[C@H]1O,inactive: 0.919
7,CCOc1ccc(CN)cn1,inactive: 0.985
8,NCCc1nnc2n1CCCCC2,inactive: 0.997
9,CC(=O)N[C@H]1CCSC1=O,inactive: 1.01
10,C=C1[C@H]2CC[C@H]3[C@]4(C)C[C@H](O[C@H]5O[C@@H](CO)[C@@H](OS(=O)(=O)O)[C@H](OS(=O)(=O)O)[C@H]5OC(=O)CC(C)C)C[C@@H](C(=O)O)[C@H]4CC[C@]3(C2)[C@H]1O,inactive: 1.02
11,Cc1cc([C@@H](C#N)c2ccc(Cl)cc2)c(Cl)cc1NC(=O)c1cc(I)cc(I)c1O,inactive: 0.985
12,COc1ccc2c(c1OC)C(=O)OC2C1c2cc3c(cc2CCN1C)OCO3 (configuration not stated),inactive: 1.1
13,Cc1cccc(CN2C[C@H]3OCCN(C)[C@H]3C2)n1,inactive: 0.971
14,CC(=O)OC[C@]12CCC(C)=C[C@H]1O[C@@H]1[C@H](O)[C@@H](OC(C)=O)[C@@]2(C)[C@]12CO2,inactive: 0.969
15,N[C@H](CO)Cc1ccccc1,inactive: 0.994
16,C=C[C@H]1[C@H](O[C@@H]2O[C@H](CO)[C@@H](O)[C@H](O)[C@H]2O)OC=C2C(=O)OCC[C@H]21,inactive: 0.992
17,O=C(C1CCCC1)N1C[C@@H]2CCNC[C@@H]21,inactive: 1
18,COc1cc([C@@H](O)CN)ccc1O,inactive: 1.01
19,C=CCC1(O)CCC2C3CCC4=CCCCC4C3CCC21C (configuration not stated),inactive: 0.969
20,"CC1(C)C(=O)C2OC2C2(C)C1CC(O)C1(C)C2CCC2(C)C(c3ccoc3)OC(=O)C3OC321 (stereo not drawn) [""1,2alpha-EPOXYDEACETOXYDIHYDROGEDUNIN""]",inactive: 1.11
21,O=[N+]([O-])c1cc(O)c(O)c([N+](=O)[O-])c1,inactive: 0.986
22,C[C@@H]1[C@H](O)[C@@H](C)/C=C\C=C/CC\C=C/C=C\C=C/C=C\[C@H](O[C@@H]2O[C@H](C)[C@@H](O)[C@H](N)[C@@H]2O)C[C@@H]2O[C@](O)(C[C@@H](O)[C@H](O)CC[C@@H](O)C[C@@H](O)C[C@@H](O)CC(=O)O[C@H]1C)C[C@H](O)[C@H]2C(=O)O,inactive: 1

row,Structure (SMILES),relative growth
1,CN(C)C1=NC(=O)C2(CCNCC2)N1,inactive: 1.03
2,CC1CCC2C(C)C(=O)OC3OC4(C)CCC1C32OO4 (configuration not stated),inactive: 0.566
3,O=C1C[C@@H](c2ccncc2)C2(CCNCC2)N1,inactive: 0.917
4,C[C@H](CO)N1C[C@H](C)[C@H](CN(C)C(=O)Oc2ccc3ccccc3c2)OCc2cn(nn2)CCCC1=O,inactive: 1.02
5,OCCN[C@@H]1c2ccccc2[C@H]2CNC[C@H]21,inactive: 0.989
6,Cc1ccc2n[nH]c(CN)c2c1,inactive: 0.959
7,N.N.[Cl][Pt][Cl],inactive: 1
8,CNC(=O)Oc1ccc2c(c1)C1(C)CCN(C)C1N2C.O=S(=O)(O)O (configuration not stated),inactive: 0.839
9,N/N=C(/N)NO,inactive: 1.03
10,C1CNC[C@@H](N2CCCC2)C1,inactive: 0.916
11,CCC1=C[C@@H]2[C@H](C1)C[C@]2(CN)CC(=O)O,inactive: 1
12,O=C(O)CC[N+](=O)[O-],inactive: 0.781
13,c1ccc2cc3c(cc2c1)-c1cccc2cccc-3c12,inactive: 1.02
14,[N-]=[N+]=NCc1ccccc1C[C@]1(C(=O)N2CCOCC2)N=C(c2ccc(OCCCO)cc2)O[C@H]1c1ccccc1N=[N+]=[N-],inactive: 1.06
15,Cc1cc2ccccc2n1CCN,inactive: 0.978
16,CC1C=CC=CCCC=CC=CC=CC=CC(OC2OC(C)C(O)C(N)C2O)CC2OC(O)(CC(O)C(O)CCC(O)CC(O)CC(O)CC(=O)OC(C)C(C)C1O)CC(O)C2C(=O)O (configuration not stated),inactive: 1.1
17,Clc1cc2c(cc1Cl)Oc1cc(Cl)c(Cl)cc1O2,inactive: 0.971
18,CC1=C2C3OC(=O)C(C)C3CCC2(C)C=CC1=O (configuration not stated),inactive: 0.937
19,OCC(CO)N1CCC2(CCNCC2)CC1,inactive: 0.998
20,C[C@H](CO)N1C[C@H](C)[C@@H](CN(C)C(=O)Oc2ccc3ccccc3c2)OCc2cn(nn2)CCCC1=O,inactive: 0.979
21,CC(=O)N[C@H]1C(=O)NC(=S)N(c2ccccc2)C1=O,inactive: 1.02
